The list shows a part of the results. Sequences were assembled here from the parent chain. Inactive controls read about 0.05.
B1: TEV protease; numbered along this chain (parent)
chain: MGESLFKGPRDYNPISSSICHLTNESDGHTTSLYGIGFGPFIITNKHLFRRNNGTLVVQSLHGVFKVKDTTTLQQHLVDGRDMIIIRMPKDFPPFPQKLKFREPQREERICLVTTNFQTKSMSSMVSDTSCTFPSGDGIFWKHWIQTKDGQCGSPLVSTRDGFIVGIHSASNFTNTNNYFTSVPKNFMELLTNQEAQQWVSGWRLNADSVLWGGHKVFMVKPEEPFQPVKEATQL

Variants of: B1
Assay: raw area under fraction-flipped curve 0-4 h after induction (AUC4h, not background-subtracted), DNA-recorder readout of cleavage of the substrate (dimensionless); higher = more cleavage of the substrate by the protease variant
Conditions: temperature: 34 °C; time window: 0-4 h after rhamnose induction
Method: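 In vivo DNA recorder in E. coli TOP10(DE3) ΔrhaA at 34 °C. Each TEVp single-site mutant (parent TEVp 0) is paired with a single-site variant of the 7-mer TEVs (canonical ENLYFQ|S). The substrate sits between flexible linkers in a Bxb1-sfGFP-TEVs-SsrA fusion, so cleavage stabilises Bxb1 and speeds flipping of a recombination array, read by NGS. The value is the raw area under the fraction-flipped curve over 0-4 h after rhamnose induction (AUC4h), with ≥20 reads per time point. It is not background-subtracted; inactive controls average about 0.047.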
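Note: Bxb1 expression induced with 0.2% (w/v) L-rhamnose at OD600 near 0.5, cultures sampled hourly, flipped fraction per protease–substrate barcode pair counted by paired-end Illumina sequencing.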

Variant	area with substrate ENAYFQS	area with substrate ENCYFQS	area with substrate ENEYFQS	area with substrate ENGYFQS	area with substrate ENHYFQS	area with substrate ENIYFQS	area with substrate ENMYFQS	area with substrate ENNYFQS	area with substrate ENQYFQS	area with substrate ENRYFQS	area with substrate ENSYFQS	area with substrate ENTYFQS	area with substrate ENVYFQS	area with substrate ENYYFQS	area with substrate ENDYFQS	area with substrate ENFYFQS	area with substrate ENPYFQS	area with substrate ENKYFQS	area with substrate ENWYFQS
MGESLFKGPRDYNPISSSICHLTNESDGHTTSLYGIGFGPFIITNKHLFRRNNGTLVVQSLHGVFKVKDTTTLQQHLVDGRDMIIIRMPKDFPPFPQKLKFREPQREERICLVTTNFQTKSMSSMVSDTSCTFPSGDGIFWKHWIQTKDGQCLSPLVSTRDGFIVGIHSASNFTNTNNYFTSVPKNFMELLTNQEAQQWVSGWRLNADSVLWGGHKVFMVKPEEPFQPVKEATQL [G153L]	0.0395	0.0628	0.0536	0.0547	0.0506	0.0375	0.0835	0.0508	0.0441	0.0731	0.0499	0.0514	0.0617	0.038	–	–	–	–	–
MGESLFKGPRDYNPISSSICHLTNESDGHTTSLYGIGFGPFIITNKHLFRRNNGTLVVQSLHGVFKVKDTTTLQQHLVDGRDMIIIRMPKDFPPFPQKLKFREPQREERICLVTTNFQTKSMSSMVSDTSCTFPSGDGIFWKHWIQTKDGQCTSPLVSTRDGFIVGIHSASNFTNTNNYFTSVPKNFMELLTNQEAQQWVSGWRLNADSVLWGGHKVFMVKPEEPFQPVKEATQL [G153T]	0.0547	–	–	–	–	–	–	–	0.0438	0.0444	0.0449	–	0.0405	–	0.0335	0.0472	0.0568	–	–
MGESLFKGPRDYNPISSSICHLTNESDGHTTSLYGIGFGPFIITNKHLFRRNNGTLVVQSLHGVFKVKDTTTLQQHLVDGRDMIIIRMPKDFPPFPQKLKFREPQREERICLVTTNFQTKSMSSMVSDTSCTFPSGDGIFWKHWIQTKDGQCGAPLVSTRDGFIVGIHSASNFTNTNNYFTSVPKNFMELLTNQEAQQWVSGWRLNADSVLWGGHKVFMVKPEEPFQPVKEATQL [S154A]	0.0584	0.0674	0.0658	–	0.0633	0.0972	0.0634	0.0588	0.056	0.0667	0.0559	0.0648	–	0.0507	0.0631	0.0539	0.0695	–	–
MGESLFKGPRDYNPISSSICHLTNESDGHTTSLYGIGFGPFIITNKHLFRRNNGTLVVQSLHGVFKVKDTTTLQQHLVDGRDMIIIRMPKDFPPFPQKLKFREPQREERICLVTTNFQTKSMSSMVSDTSCTFPSGDGIFWKHWIQTKDGQCGDPLVSTRDGFIVGIHSASNFTNTNNYFTSVPKNFMELLTNQEAQQWVSGWRLNADSVLWGGHKVFMVKPEEPFQPVKEATQL [S154D]	0.0503	0.0564	–	0.0523	–	–	–	0.05	0.0587	0.0541	0.0934	–	–	0.0478	–	0.0494	–	–	–
MGESLFKGPRDYNPISSSICHLTNESDGHTTSLYGIGFGPFIITNKHLFRRNNGTLVVQSLHGVFKVKDTTTLQQHLVDGRDMIIIRMPKDFPPFPQKLKFREPQREERICLVTTNFQTKSMSSMVSDTSCTFPSGDGIFWKHWIQTKDGQCGIPLVSTRDGFIVGIHSASNFTNTNNYFTSVPKNFMELLTNQEAQQWVSGWRLNADSVLWGGHKVFMVKPEEPFQPVKEATQL [S154I]	0.0472	–	–	0.0571	–	0.104	–	–	–	–	0.0998	–	0.0954	–	0.066	–	–	–	–
MGESLFKGPRDYNPISSSICHLTNESDGHTTSLYGIGFGPFIITNKHLFRRNNGTLVVQSLHGVFKVKDTTTLQQHLVDGRDMIIIRMPKDFPPFPQKLKFREPQREERICLVTTNFQTKSMSSMVSDTSCTFPSGDGIFWKHWIQTKDGQCGVPLVSTRDGFIVGIHSASNFTNTNNYFTSVPKNFMELLTNQEAQQWVSGWRLNADSVLWGGHKVFMVKPEEPFQPVKEATQL [S154V]	0.0626	–	0.0692	0.0555	–	–	0.0836	–	0.0434	0.0654	0.0628	–	0.0482	–	–	–	0.0438	–	–
MGESLFKGPRDYNPISSSICHLTNESDGHTTSLYGIGFGPFIITNKHLFRRNNGTLVVQSLHGVFKVKDTTTLQQHLVDGRDMIIIRMPKDFPPFPQKLKFREPQREERICLVTTNFQTKSMSSMVSDTSCTFPSGDGIFWKHWIQTKDGQCGSGLVSTRDGFIVGIHSASNFTNTNNYFTSVPKNFMELLTNQEAQQWVSGWRLNADSVLWGGHKVFMVKPEEPFQPVKEATQL [P155G]	0.0521	0.0625	0.0565	0.0526	–	0.064	–	0.0569	0.0466	0.0464	–	0.0564	0.0484	–	0.0447	0.0462	0.0746	–	–
MGESLFKGPRDYNPISSSICHLTNESDGHTTSLYGIGFGPFIITNKHLFRRNNGTLVVQSLHGVFKVKDTTTLQQHLVDGRDMIIIRMPKDFPPFPQKLKFREPQREERICLVTTNFQTKSMSSMVSDTSCTFPSGDGIFWKHWIQTKDGQCGSPYVSTRDGFIVGIHSASNFTNTNNYFTSVPKNFMELLTNQEAQQWVSGWRLNADSVLWGGHKVFMVKPEEPFQPVKEATQL [L156Y]	0.0559	–	0.0463	–	0.0629	–	0.0533	0.0513	–	0.079	0.056	0.0618	0.053	0.0518	–	–	–	–	–
MGESLFKGPRDYNPISSSICHLTNESDGHTTSLYGIGFGPFIITNKHLFRRNNGTLVVQSLHGVFKVKDTTTLQQHLVDGRDMIIIRMPKDFPPFPQKLKFREPQREERICLVTTNFQTKSMSSMVSDTSCTFPSGDGIFWKHWIQTKDGQCGSPLVVTRDGFIVGIHSASNFTNTNNYFTSVPKNFMELLTNQEAQQWVSGWRLNADSVLWGGHKVFMVKPEEPFQPVKEATQL [S158V]	0.0525	–	–	–	–	–	–	0.0506	0.0642	0.0499	0.0518	–	0.0453	0.0574	0.0535	0.05	–	0.0552	0.0441
MGESLFKGPRDYNPISSSICHLTNESDGHTTSLYGIGFGPFIITNKHLFRRNNGTLVVQSLHGVFKVKDTTTLQQHLVDGRDMIIIRMPKDFPPFPQKLKFREPQREERICLVTTNFQTKSMSSMVSDTSCTFPSGDGIFWKHWIQTKDGQCGSPLVSKRDGFIVGIHSASNFTNTNNYFTSVPKNFMELLTNQEAQQWVSGWRLNADSVLWGGHKVFMVKPEEPFQPVKEATQL [T159K]	0.06	0.0969	–	–	0.0625	0.11	–	0.0801	0.0549	0.0717	0.0672	–	–	–	–	–	–	0.0715	0.0052

Reference: the supplement of paper PMC12217912
